These results are taken from PubChem BioAssay AID488969 (Vanderbilt High Throughput Screening Facility, 2010).

The full ranking holds about 110,000 compounds; the median of “z-score” is about -0.1, and the highest 2% start at about 2. This is one part of the list. The source made the active and inactive calls.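 Rule for the calls: active = z-score in the third read window above 3 or below -3; inactive = the rest.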

For this test, the target named is Metabotropic glutamate receptor 8 (Rattus norvegicus) (UniProt P70579). As to the kind of experiment: rat mGluR8 modulators via GIRK flux, primary screen, cell-based, thallium flux, HTS (AID 488969). The conditions noted are these: HEK293 rat mGluR8, GIRK (G protein-gated inwardly rectifying potassium channel) thallium flux, FluoZin2; at 10 µM; stronger effect = higher value; submaximal glutamate (EC20) added with thallium.
UniProt P70579, sequence (P70579 whole entry, looked up): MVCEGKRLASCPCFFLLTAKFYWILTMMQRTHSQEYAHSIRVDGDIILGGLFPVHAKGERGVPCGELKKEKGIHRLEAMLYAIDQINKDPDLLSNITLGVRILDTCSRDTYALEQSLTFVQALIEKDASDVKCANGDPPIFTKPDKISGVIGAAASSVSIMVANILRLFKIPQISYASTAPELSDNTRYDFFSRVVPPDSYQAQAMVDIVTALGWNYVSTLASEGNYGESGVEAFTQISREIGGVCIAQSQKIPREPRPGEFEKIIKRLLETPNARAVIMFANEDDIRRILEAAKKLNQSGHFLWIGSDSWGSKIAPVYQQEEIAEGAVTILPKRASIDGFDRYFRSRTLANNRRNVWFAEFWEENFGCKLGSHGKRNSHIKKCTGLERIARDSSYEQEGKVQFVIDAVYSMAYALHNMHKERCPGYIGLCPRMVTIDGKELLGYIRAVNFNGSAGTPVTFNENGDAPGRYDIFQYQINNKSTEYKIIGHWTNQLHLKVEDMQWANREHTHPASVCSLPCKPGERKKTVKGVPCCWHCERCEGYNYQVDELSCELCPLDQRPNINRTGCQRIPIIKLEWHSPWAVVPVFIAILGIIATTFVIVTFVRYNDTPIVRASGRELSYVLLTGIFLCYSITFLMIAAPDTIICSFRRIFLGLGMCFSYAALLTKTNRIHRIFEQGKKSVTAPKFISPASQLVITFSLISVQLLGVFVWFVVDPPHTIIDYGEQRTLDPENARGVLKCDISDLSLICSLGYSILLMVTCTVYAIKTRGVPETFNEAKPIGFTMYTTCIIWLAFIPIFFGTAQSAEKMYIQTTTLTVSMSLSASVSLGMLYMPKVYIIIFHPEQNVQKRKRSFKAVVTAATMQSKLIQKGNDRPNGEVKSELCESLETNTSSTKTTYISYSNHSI
In the case of `OC(COCC1COc2ccccc2O1)CN1CCCCC1` (stereo unspecified), the z-score was 0.068.
As for `CCOc1ccc(N(CC(=O)Nc2cccc(Cl)c2)S(=O)(=O)c2c(C)noc2C)cc1`, the z-score was -0.0972.
The value for `COc1cc(C=O)ccc1OCCOCCOc1cc(C)ccc1Cl` was -0.212; that for `CCC(=O)N1CCc2cc(Br)cc(S(=O)(=O)N3CCCCCC3)c21` was -0.994; that for `CC(=O)c1ccc(OCC(O)CN2CCN(c3ccccn3)CC2)cc1` (stereo unspecified) was 0.331.
To `Cc1ccc2c(c1)N(C(=O)CCC(=O)N1CCc3ccccc3C1)CCO2` belongs -0.377; to `O=C(O)c1cc([N+](=O)[O-])ccc1Nc1ccccc1`, -0.608; to `O=C(COC(=O)c1cccc(NS(=O)(=O)c2ccc(F)c(F)c2)c1)NC(=O)NC1CCCC1`, -0.651.
The value for `COC(=O)c1ccc(Nc2cc(C)nc3ncnn23)cc1` was 0.556; that for `CCOC(=O)c1c(NC(=O)C2COc3ccccc3O2)sc(C(C)=O)c1C` (stereo unspecified) was -0.115; that for `CC(NC(=O)c1csc2ccccc12)C1CCCO1` (stereo unspecified) was 0.152.
`CCCn1cc(S(=O)(=O)CC(=O)NC2CCCCC2)c2ccccc21` displayed a z-score of 0.0487.
Compound `CCCc1cc(=O)oc2cc(OCc3nn[nH]n3)ccc12` came in with a z-score of 0.0525.
To `COc1ccc2c(c1)[nH]c1c(=O)n(CC3CCCO3)cnc12` (stereo unspecified) belongs -0.0789; to `COC(=O)c1cc(C#N)c(Oc2ccc(F)cc2)nc1C`, -0.153.
The value for `CCOC(=O)c1oc2c(CN3CCN(C)CC3)c(O)ccc2c(=O)c1-c1ccccc1OC` was 0.292; that for `Nc1ccccc1Nc1ccccc1` was -0.162; that for `CCC1SC2=NC(C)=C(C(=O)OC)C(c3ccc(C(=O)OC)cc3)N2C1=O` (stereo unspecified) was -0.683.
The value for `Cc1cc(C)nc(Sc2nc(Cl)nc(N(c3ccccc3)c3ccccc3)n2)n1` was -0.47; that for `CCC(C)Nc1c([N+](=O)[O-])cc(C)cc1[N+](=O)[O-]` (stereo unspecified) was -0.166.
As to `Cc1ccc(NC(=O)c2oc(=O)c3ccccc3c2-c2ccccc2)c(C)c1`, the z-score was -0.162.
For `O=C(O)c1[nH]c2ccccc2c1CC(=O)N1CCOCC1`, the z-score is 0.571.
Consider `COc1ccc(C(=O)C(C)N(C(=O)c2ccc(Cl)cc2Cl)N2C(=O)C3C4C=CC(C4)C3C2=O)cc1` (stereo unspecified), for which the z-score is -0.146.
The value for `CCCc1ccc(C(=O)NNC(=O)c2ccc(Br)cc2)cc1` was 0.763; that for `O=C(CCNC(=O)OCc1ccccc1)NC1CCCCC1` was 0.0409; that for `Cc1ccc2nc3sc(C(=O)N4CCCc5ccccc54)c(N)c3cc2c1` was 0.484.
To `COc1ccc2[nH]c(=O)c(C(c3nnnn3C(C)(C)C)N(Cc3ccco3)CC3CCCO3)cc2c1` (stereo unspecified) belongs 0.22; to `Cc1cc(C)cc(NC(=S)NCC2CCCO2)c1` (stereo unspecified), -0.21; to `Cc1oc2c(C)c3oc(=O)c4c(c3cc2c1C)CCC4`, -0.532.
`COC(=O)c1ccc(NC(=O)c2ccc3c(c2)OCO3)cc1` showed a z-score of -0.148.
In the case of `COc1ccc(C2C(Oc3ccccc3C)C(=O)N2Cc2ccc(F)cc2)cc1OC` (stereo unspecified), the z-score is -1.24.
As to `CC(=O)c1ccc(NC(=O)C2CCCN2S(=O)(=O)c2cccc3cccnc23)cc1` (stereo unspecified), the z-score was -0.24.
To `CCCNC(=O)CNC(=S)N(Cc1cc(OC)c(OC)c(OC)c1)C1CCCC1` belongs -0.414; to `CCn1c(SCCC(C)C)nnc1-c1c[nH]c2ccccc12`, -0.118.
The value for `Cc1cc(Br)ccc1SCC(=O)OCC(=O)NCc1ccc2c(c1)OCO2` was -0.532; that for `CCCCOC(=O)Cn1c(=N)n(CCN(CC)CC)c2ccccc21` was -0.322; that for `CCNC(=S)N/N=C/c1cccc(C)c1` was 0.00977.
The value for `Cc1cccc(Nc2nc(N)c([N+](=O)[O-])c(N3CCCC(C)C3)n2)c1` (stereo unspecified) was -0.0648; that for `COc1ccc(NC(=S)Nc2cc(C)cc(C)n2)cc1OC` was -0.482; that for `COc1cccc(C2C(C(=O)c3cc4cccc(OC)c4o3)=C(O)C(=O)N2c2cc(C)on2)c1OC` (stereo unspecified) was -0.133.
Consider `COc1ccc(-c2nc(C#N)c(NCc3cccnc3)o2)cc1OC`, for which the z-score was -0.191.
The compound `O=C(Nc1ccc(OC(F)(F)F)cc1)Nc1cccc([N+](=O)[O-])c1` registered a z-score of -0.447.
To `Cc1nn(Cc2ccc(Cl)cc2)c(Cl)c1/C=N/NC(=O)CNc1ccccc1F` belongs -0.0516; to `CCCCNC(=O)COC(=O)c1cc(C)nc2ccccc12`, -0.0508; to `CC(C)CC(=O)NC1(C(F)(F)F)C(=O)N(Cc2ccccc2)C2=C1C(=O)CC(C)(C)C2` (stereo unspecified), -0.0536.
The value for `COc1ccc2c(C)cc(SCC(=O)Nc3ccc(Cl)cn3)nc2c1` was -0.00668; that for `Cc1cn(S(=O)(=O)c2ccc(Br)c3ccccc23)cn1` was 0.109; that for `CCCc1nc(NC2CCCCC2)c(C#N)c2c1COC(C)(C)C2` was -1.49.
As for `O=C1CSC(c2ccccc2)N1CC12CC3CC(CC(O)(C3)C1)C2` (stereo unspecified), the z-score is -0.241.
The value for `CCc1nc2ccc(C(=O)O)cc2nc1CC` was 0.51; that for `CCN(CC)c1cc(C)c2cc(NC(=O)CNC(C)=O)ccc2n1` was 1.43; that for `COc1ccc(C)cc1NC(=O)CCCN1C(=O)CCC1=O` was -0.23.
`N#C/C(=C\Nc1ccccc1SC(F)(F)F)c1nc(-c2ccc(Cl)cc2)cs1` displayed a z-score of -0.248.
Regarding `COC(=O)CSc1nc2ncccc2[nH]1`, the z-score stood at 2.69.
To `CCOC(=O)C1=C(C)N(C2CCCCC2)C(=O)C1` belongs -0.101.
For the compound `CCOc1cc(C)nc(Oc2ccc(=O)[nH]n2)n1`, the z-score amounted to 0.324.
To `CCc1ccc(/C=C/C(=O)c2c(C)cc(C)[nH]c2=O)cc1` belongs -0.106.
`COc1ccc(NC(=O)C(NC(C)=O)C(=O)NCc2ccc(F)cc2)cc1` (stereo unspecified) showed a z-score of -0.0758.
To `CCCCN(CCCC)C(=O)c1ccccc1NC(=O)CN1C(=O)c2ccccc2C1=O` belongs -0.366.
To `CC(=O)Nc1nc(-c2ccc(Cl)cc2)nc(C)c1C(C)=O` belongs -0.063.
The value for `CCOC(=O)c1cnc2c(ccc3ccccc32)c1NCCO` was -1.92.
The compound `COc1cccc(Nc2nc3ccccc3nc2-n2nc(C)cc2C)c1` displayed a z-score of -0.0398.
The value for `CC(=O)Nc1ccc(S(=O)(=O)NCCc2ccc(S(N)(=O)=O)cc2)cc1` was 0.0666; that for `Cc1cc(C=C(C#N)C#N)c(C)n1-c1ccccc1` was -0.0466.
To `CCOC(=O)c1nnn(-c2nonc2-n2cccc2)c1CN1CCC(C(=O)OCC)CC1` belongs -0.278; to `CCc1ccc(C2CC(c3ccc(Cl)cc3)=NNC2=O)cc1` (stereo unspecified), -0.459.
As to `COc1cc(C)c(S(=O)(=O)n2nnc3ccccc32)cc1C`, the z-score was -0.262.
To `CCCC1COC(Cn2cncn2)(c2ccc(C)cc2)O1` (stereo unspecified) belongs active: 10.6; to `Cn1ncc2c(Nc3cccc(C(=O)O)c3)ncnc21`, -0.385.
The value for `COC(=O)c1cc(COc2ccc3c4c(c(=O)oc3c2)CCC4)c(C)o1` was -0.288.
The value for `Cc1ccc(S(=O)(=O)NCc2nc3ccccc3c(=O)n2N)cc1` was 0.355.
